Results published in paper PMC12136788.
This is one part of the list.

T1: UNK ZnF1-3 (human, UniProt Q9C0B0 31-174)
T1 sequence: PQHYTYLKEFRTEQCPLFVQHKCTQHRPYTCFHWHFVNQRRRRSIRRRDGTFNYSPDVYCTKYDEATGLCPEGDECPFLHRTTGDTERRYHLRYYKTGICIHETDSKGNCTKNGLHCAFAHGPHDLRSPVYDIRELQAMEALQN

B1: chr2:114342542:114342543:-_ENSMUSG00000057147_ENSMUST00000102542|mus_hu|FALSE|FALSE (ssRNA)
RNA: GGGAGUUCUACAGUCCGACGAUCUAAAGGAGAGGGAGGGAUGAAUAAGUAAAACACAGAGGAUUUUUUAAGGCAGUGAAAUUAUUCUGUAUAAUACUAUAACGGUUGACAAAUGUCAUUACACAUUUGUCAAAACCCAUAUUACAACAGAGGAUUGAGCAUCA
B2: chr2:125074910:125074911:+_ENSMUSG00000027203_ENSMUST00000082122|mus_hu|FALSE|FALSE (ssRNA)
RNA: GGGAGUUCUACAGUCCGACGAUCUUUUGCAGCCAAGCCUGACCGUGGAGCCACUCUUCCAUAACACCCAGAAGGGAGCGCUAUCUGAAUGUCCGUUUUCACAACAGCUUUCUCCAUAGGUGGUAUUGUGUAAUCAUAGGCACUCAACAGAGGAUUGAGCAUCA
B3: chr2:42509997:42509998:+_ENSG00000143924_ENST00000318522|hu_mus|hu_hu_hu_mus_True|78_108 (ssRNA)
RNA: GGGAGUUCUACAGUCCGACGAUCUCGCUGAGUUCUCUCCUCAUAAUUAAACAGGACUACUACUGAUGCGAUAAAAUAAACUAUCUCCCCUGUGGGAAGCAGGUAUACAUUCGCUCUACAGUCCUUUCCUCGAUAACCGUAUACCAACAGAGGAUUGAGCAUCA
B4: chr9:62645482:62645483:-_ENSMUSG00000032244_ENSMUST00000034775|mus_mus|FALSE|FALSE (ssRNA)
RNA: GGGAGUUCUACAGUCCGACGAUCGACUGUGGUGUGGUUCACGUUGGCUCCAUGGCUGACUAGAAGUUUAACAACUUCAAAAUGUCCGGCUCCCGCAGCACACCAAAGAGCAGUGGCACCGUCAAUGACAUACCCGUCGAAGCGCAACAGAGGAUUGAGCAUCA
B5: chr9:122046315:122046316:+_ENSMUSG00000038145_ENSMUST00000120173|mus_hu|motif|central (ssRNA)
RNA: GGGAGUUCUACAGUCCGACGAUCUAGUUUGGUCUGGGUGUCAAUAACUUCAUAAAGGCGGACGAUGUUAGGAUGCUGCACGGGUUUCAUGCAUCUCACUUCCUGGAAAAGAUGACCAGUAGCUAGAGUGUCCAGUUUUGUCUUCAACAGAGGAUUGAGCAUCA
B6: chr16:32231720:32231721:-_ENSMUSG00000035764_ENSMUST00000042732|mus_hu|FALSE|FALSE (ssRNA)
RNA: GGGAGUUCUACAGUCCGACGAUCACAAUCUUAACUCCCAAGGAGCAAUCCAAGAAUCCCGGCCAGCUGCUGGGUGUCCCUAAUCAGAUUUAAAACAAAACAUACAUACAGCAAGAACUCAGAAGUACAAAGAUUUCGCUCGCUCAACAGAGGAUUGAGCAUCA
B7: chr17:65740002:65740003:+_ENSG00000130935_ENST00000581375|hu_hu|hu_hu_hu_mus_False|8_38 (ssRNA)
RNA: GGGAGUUCUACAGUCCGACGAUCAACAAAUCUUUCUUCCCUGGACGAACAGGAAGAUUCAUAUUAAAAAAAAUAUAUAUCCAUCAAGUUAGGUGUGUAAUAUCAGACUUUACUCCCAGCACUUUGGGAAUAUAAUCUCUGAGUCAACAGAGGAUUGAGCAUCA
B8: chr7:135612270:135612271:-_ENSG00000105887_ENST00000393085|hu_mus|hu_hu_hu_mus_False|58_58 (ssRNA)
RNA: GGGAGUUCUACAGUCCGACGAUCGUUUUUUUCUGAGAUGUUAAAUAGUACUUCAGUGGAAAACAAAACUUAACCUUUCGCUAAUGCGUGUUGUACCAAAAGCAGACAUUUUAGCUUCAUUUAUUCAAAAAUAUUAACAUUAAGCAACAGAGGAUUGAGCAUCA
B9: chr13:45008927:45008928:-_ENSG00000102804_ENST00000261489|hu_hu|motif|central (ssRNA)
RNA: GGGAGUUCUACAGUCCGACGAUCAGGACUGGCCAGUGUCUUCAGCAGAUUGUUCUCCUGCUCCAGCUGGGAAUUUUUCUCGGUUAGUUCUUUGAUUUGCUCUUUGAGGACCUCCACUUCUUCUCUGACCGCAUACAUCAAAUGCAACAGAGGAUUGAGCAUCA
B10: chr19:8913615:8913616:-_ENSMUSG00000071658_ENSMUST00000096259|mus_hu|mus_mus_mus_hu_False|1_68 (ssRNA)
RNA: GGGAGUUCUACAGUCCGACGAUCAGGGUACCAAAACCUUCUGCCUGAAAUGGGUGCCCCACCCAGUCAGGACUUGGAGCUGAAAGUAUCUGAUGCAGAAGCAGUGACUAUACGAAAGGAGGCCCCUGGGGAGGGCCCGAGAUCCAACAGAGGAUUGAGCAUCA
B11: chr7:151048522:151048523:+_ENSG00000013374_ENST00000566856|hu_mus|hu_hu_hu_mus_True|48_78 (ssRNA)
RNA: GGGAGUUCUACAGUCCGACGAUCCUGUUUCUUAUUUAUUACGAUCUUGAUGUAAUUUUCUUGAAGUCCGAAAGUUUCAGCUAUUUGGGACCUCAGUUCUCUACCAGUGACAUGCAAGCGGGUCUCCAACAAGCUUUUCUUAUCCAACAGAGGAUUGAGCAUCA
B12: chr6:85879240:85879241:+_ENSMUSG00000054226_ENSMUST00000067137|mus_mus|FALSE|FALSE (ssRNA)
RNA: GGGAGUUCUACAGUCCGACGAUCUACUGCUAUACUCUUUUAGCUGCCUCUUGUAUAAAGUGGGCACAAAGACAUAUCUACCUAAAAAGCAGCUAAGAGAGUUAAAUGAAUUGCUAUUUAUUGAGAUAGGAUUUGACAUAGUACCAACAGAGGAUUGAGCAUCA
B13: chr3:41417089:41417090:+_ENSMUSG00000025764_ENSMUST00000026865|mus_hu|motif|central (ssRNA)
RNA: GGGAGUUCUACAGUCCGACGAUCAACCAAGGAAGUACCCAUUUGUUUUCUGAAGAAUGCAGAAUGCCACUUCAAGUCCUCGGUCUUGGGAGCAUCAGGGCCAACAGAAGGACUGUUAAACAAAAGCAUGUUUUCCAGUGAGGACAACAGAGGAUUGAGCAUCA
B14: chr10:33190432:33190433:-_ENSG00000150093_ENST00000302278|hu_mus|hu_hu_hu_mus_True|8_68 (ssRNA)
RNA: GGGAGUUCUACAGUCCGACGAUCUACAUUUUCCAAACCUGCAUGUGAAUAAAACCCUGGCCACAGAGCCCUAAAGCUACCCUACUGUGACUAAGAUGCUGCUGCUGUGAGCUUGGUGUUGCAAAAUUUUGCACGGGAGGAUUCCAACAGAGGAUUGAGCAUCA

What follows are binders tested against T1, UNK ZnF1-3 (assay: nsRBNS (natural sequence RNA bind-n-seq); RBNS binding buffer (assumed for nsRBNS): 25 mM Tris pH 7.5, 150 mM KCl, 3 mM MgCl2, 0.01% Triton X-100, 500 ug/ml BSA, 20 U/ml SUPERase-In, 4 C; UNK is unkempt and MSI1 is Musashi-1; names of the RNAs are library labels; protein concentration not given here; high values mean tight binding).

Binder | binding signal [enrichment R]
B1 | 2.78
B2 | 0.912
B3 | 0.963
B4 | 1.05
B5 | 1.03
B6 | 1.4
B7 | 1.27
B8 | 1.03
B9 | 0.889
B10 | 1.54
B11 | 0.552
B12 | 1.41
B13 | 1.71
B14 | 0.962
